Tested on: Mtb
Assay: 14C-labeled [19F]FDT incorporation into Mtb lipids
Conditions: Mtb culture, 24 h

For `O[14CH2][14CH]1O[14CH](O[14CH]2O[14CH]([14CH2]O)[14CH](O)[14CH](O)[14CH]2F)[14CH](O)[14CH](O)[14CH]1O` (stereo not shown) [[U-^14C, ^19F]FDT], the “incorporation into Mtb lipids (TLC)” value was “incorporation into less polar, lipidic species”.

— publication PMC11211441, “Distributable, metabolic PET reporting of tuberculosis” (Nature Communications, 2024)
